Source: article PMC4336329 (PLoS ONE, 2015)
About 2,200 (0.71%) of roughly 310,000 compounds showed an effect of 50% or more. The effect is printed as a negative number. The list shows a part of the results.

These compounds were tested against human ether-à-go-go-related gene (hERG) potassium channel (human, UniProt Q12809) (assay: primary screen, population patch clamp on CHO cells stably expressing hERG).
Sequence of human ether-à-go-go-related gene (hERG) potassium channel (Q12809 whole entry, looked up): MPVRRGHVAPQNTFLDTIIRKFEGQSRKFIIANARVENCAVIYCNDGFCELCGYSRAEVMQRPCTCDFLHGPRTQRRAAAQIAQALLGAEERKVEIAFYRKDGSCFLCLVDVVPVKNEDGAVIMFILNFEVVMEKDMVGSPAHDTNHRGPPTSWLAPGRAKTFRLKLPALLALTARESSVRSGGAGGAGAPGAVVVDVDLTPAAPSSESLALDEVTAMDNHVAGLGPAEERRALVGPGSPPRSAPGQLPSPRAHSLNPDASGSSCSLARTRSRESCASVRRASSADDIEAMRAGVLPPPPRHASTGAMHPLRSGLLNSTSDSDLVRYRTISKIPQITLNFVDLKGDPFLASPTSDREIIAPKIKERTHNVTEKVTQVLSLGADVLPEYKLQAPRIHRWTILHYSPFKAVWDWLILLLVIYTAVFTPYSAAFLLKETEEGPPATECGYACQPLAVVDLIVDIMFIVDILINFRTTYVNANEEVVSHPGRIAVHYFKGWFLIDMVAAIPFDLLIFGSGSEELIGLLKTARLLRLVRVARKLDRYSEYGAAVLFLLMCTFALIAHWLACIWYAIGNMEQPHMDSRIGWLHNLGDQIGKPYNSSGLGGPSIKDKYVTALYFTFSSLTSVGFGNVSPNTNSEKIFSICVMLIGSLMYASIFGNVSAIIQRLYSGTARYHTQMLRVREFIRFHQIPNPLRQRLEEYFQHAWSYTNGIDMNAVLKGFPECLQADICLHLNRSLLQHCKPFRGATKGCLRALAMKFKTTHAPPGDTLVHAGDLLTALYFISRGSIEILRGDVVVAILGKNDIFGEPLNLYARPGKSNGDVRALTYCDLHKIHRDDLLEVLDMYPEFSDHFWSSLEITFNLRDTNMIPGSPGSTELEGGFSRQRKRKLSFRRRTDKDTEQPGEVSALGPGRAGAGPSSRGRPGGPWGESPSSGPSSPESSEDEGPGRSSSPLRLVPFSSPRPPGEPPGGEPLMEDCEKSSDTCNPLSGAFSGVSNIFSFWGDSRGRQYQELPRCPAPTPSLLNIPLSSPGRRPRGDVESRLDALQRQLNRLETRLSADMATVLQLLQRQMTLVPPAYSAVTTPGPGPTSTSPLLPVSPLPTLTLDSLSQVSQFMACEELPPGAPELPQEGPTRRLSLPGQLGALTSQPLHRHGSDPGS

Row | Structure (SMILES) | hERG current change (%, negative = inhibition) at 1uM [%]
1 | O=C(NCc1ccccc1)c1onc(CSc2ccncc2)c1C(=O)NCc1ccccc1 | 12.9
2 | Cc1ccc(C)c(N(C(=O)c2csnn2)C(C(=O)NC2CCCCC2)c2ccncc2)c1 (stereo not drawn) | 8.58
3 | Oc1ccc(C[C@H]2CNCCN2CCCCC2CCCCC2)cc1 | 9.03
4 | Cc1n[nH]c(C)c1S(=O)(=O)N1CCCC(C(=O)Nc2ccc(Br)cc2)C1 (stereo not drawn) | 9.82
5 | CCCCn1c(N)c(N(CC(C)C)C(=O)CCNC(=O)c2ccccc2Cl)c(=O)[nH]c1=O | 9.56
6 | O=C(/C=C/c1ccccc1)N/C(=C/c1ccccc1)C(=O)Nc1cccc(C(=O)O)c1 | 14.8
7 | COc1ccc(CN(C)Cc2cc(=O)oc3cc(C)c(C(C)C)cc23)cc1OC | 9.71
8 | COC(=O)c1c(C)noc1-c1snnc1C | 12.7
9 | COc1ccc(C2=NOC(C(=O)NCCCN3CCOCC3)C2)cc1 (stereo not drawn) | 7.72
10 | CCOC(=O)Cn1c(=O)c2c(nc3n2CC(C)CN3Cc2ccccc2)n(C)c1=O (stereo not drawn) | -4.09
11 | CCOc1ccc(Cn2nnc(C(=O)NCCc3ccccc3)c2N)cc1 | 8.95
12 | Cc1cc(C)cc(NC(=O)C(OC(=O)c2ccc(O)cc2)c2ccccc2)c1 (stereo not drawn) | 6.07
13 | O=C(O)CC(CNC(=O)C1CCCN1C(=O)OCc1ccccc1)c1ccccc1 (stereo not drawn) | 4.43
14 | Cc1cc(C(=O)NNC(=O)c2cccc([N+](=O)[O-])c2)n[nH]1 | 16.9
15 | COc1ccc(NC(=O)CN2CCN(c3ccc(F)cc3)CC2)cc1 | 7.86
16 | CC(=O)C1CCCN(C(=O)c2ccc3nc(Cc4cccc(Cl)c4)oc3c2)C1 (stereo not drawn) | 19.7
17 | O=C(NCCN1CCCCC1)c1cc(Cl)ccc1Cl | 7.28
18 | CCN(CC(=O)Nc1ccc(C(=O)OC)cc1)Cc1ccccc1.O=C(O)C(=O)O | 3.01
19 | CC(C)Cc1[nH]c(=O)c(C#N)c2c1CCCC2 | 2.89
20 | Cc1cc(F)ccc1S(=O)(=O)N1CCCOC1CNC(=O)C(=O)NCCc1ccccc1 (stereo not drawn) | 0.892
21 | Cc1ccc(-c2nc3ccccn3c2C=O)cc1 | 7.01
22 | O=C(CN1C(=O)C(=O)c2ccccc21)c1ccc(Cl)cc1 | 10.3
23 | CCc1cc2c(CN(C)Cc3ccccc3F)cc(=O)oc2cc1O | 14.8

Row | Structure (SMILES) | hERG current change (%, negative = inhibition) at 1uM [%]
24 | Cc1oc(-c2ccc(Cl)cc2)nc1CSCC(=O)NC1CCN(Cc2ccccc2)CC1 | -19.2
25 | C=CCn1c(SCc2ccc(C(=O)Nc3nccs3)cc2)nnc1-c1ccc(C)c(Cl)c1 | 6.69
26 | O=C(C#Cc1ccccc1)Nc1ccccc1F | 13
27 | COc1ccc2cc(C3=CCCCC3)ncc2c1 | 3.62
28 | Cc1ccc([N+](=O)[O-])c2c1C(N1CCCCC1)C(C)(C)O2 (stereo not drawn) | -0.943
29 | CN1CCN(c2nc([N+](=O)[O-])nn2C)CC1 | 10.5
30 | Cc1ccc(NCc2nc3ccccc3n2C)cc1C | 12.1
31 | O=C(Cc1ccccc1)NCC(=O)OCC(=O)c1ccc(Cl)c([N+](=O)[O-])c1 | 7.7
32 | COc1ccc(C(=O)N/C(=C/c2ccc(Cl)cc2)C(=O)NCc2ccncc2)cc1 | -38.4
33 | Cc1nc[nH]c(=O)c1Br | 13.3
34 | CCc1nc(C)ccc1OCC(=O)O.Cl | -0.733
35 | CC(=O)/C(=N\Nc1ccc(C)cc1)Sc1nncn1C | -0.286
36 | CCCC(c1nnnn1CCc1ccccc1)N1CCN(C2CCCC2)CC1 (stereo not drawn) | -15.5
37 | O=C(Nc1ccccc1Cl)c1cc(=O)c2ccccc2o1 | 16.4
38 | COc1cccc(NC(=O)CN(C)C(C)C(=O)N2CCCC2)c1 (stereo not drawn) | 1.28
39 | COc1cc(/C=C/C(=O)OCN2C(=O)c3ccccc3C2=O)ccc1OC(F)F | 2.75
40 | Cc1cccc(NS(=O)(=O)c2c(C(=O)N3CCCC3)c(C)n(C)c2C)c1 | 16
41 | CC(=O)OC1N=C(c2ccccc2Cl)c2cc(Br)ccc2NC1=O (stereo not drawn) | -1.45
42 | CCc1cc2cc(C)ccc2nc1SCC(=O)N1CCN(C(=O)c2ccco2)CC1 | -4.38
43 | CCC(=O)Nc1nc(C)c(-c2csc(Nc3cccc(C(=O)O)c3)n2)s1 | -6.02
44 | CN(C)c1ccc(CNn2cnnc2)cc1 | -4.49
45 | Cc1ccc2oc(=O)c3cnn(CC(=O)Nc4ccccc4N4CCN(C)CC4)c3c2c1 | 11.4
